Measurements reported in PubChem BioAssay AID493208 (National Center for Advancing Translational Sciences (NCATS), 2011).
The campaign covered roughly 44,000 compounds. About 340 (0.77%) were called active. Another 5% or so got no clear call; they are omitted. Calls follow the shape of the dose curve; as a rule, active = well fitted inhibition curve with a large enough effect; inconclusive = small, poorly fitted or top-dose-only effect; inactive = flat fitted curve, though single readings scatter. Some of the results follow.

Assay: Acumen qHTS Assay for Inhibitors of the mTORC1 Signaling Pathway in MEF (Tsc2-/-, p53-/-) Cells: Sytravon;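 also: plate controls were DMSO for no effect and rapamycin for full effect; nearly all actives have a fitted effect of over 50% in size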
Conditions: phospho-rpS6 immunofluorescence/PI, 24 h; series mostly up to 38.3 µM; activity change, negative = inhibition: at the top concentration
Procedure, shortened: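 Readout is phospho-S6 Alexa 488 signal normalized to PI per well, reported as % active cells with thresholds set from rapamycin (7.5 nM) and DMSO controls. Cells: Tsc2-/-, p53-/- MEFs, 24 hrs compound at 37 C; PI cell number serves as viability.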

Activity change, negative = inhibition, inactive:
COc1cc(Cl)c(C)cc1NC(=O)Cn1ncc2c3ccccc3n(Cc3ccccc3)c2c1=O -2.8%, CCc1ccc(CNC(=O)c2c(C)oc3ncn(CC(C)C)c(=O)c23)cc1 0.484%, COc1ccc(CNC(=O)CCCn2c(=O)c3cccn3c3cccnc32)cc1 0.835%, CCN(CC)CCCNC(=O)CN1N=C(c2ccc(OC)cc2)CCC1=O 0.0334%, CCc1ccc(S(=O)(=O)c2c(C(=O)c3ccccc3)cnc3ccc(CC)cc23)cc1 -11.6%, O=S(=O)(c1cccc(F)c1)N1CCC(Oc2ccc(-n3cnnn3)cc2)CC1 -3.72%, CCOCCCNC(=O)c1c(NC(=O)Cc2coc3ccc(C)cc23)sc2c1CCC2 -3.45%, CC(C)c1ccc(OCC(O)CN2CCN(c3ccc(F)cc3)CC2)cc1 (stereo unspecified) 15.7%, CCCCNS(=O)(=O)c1ccc2nc(-c3cccnc3)cc(C(=O)NCCOC)c2c1 1.05%, Cc1ccccc1NC(=O)c1ccc(Cl)c(S(=O)(=O)N2CCCCCC2)c1 9.41%, CCC1CCCCN1C(=O)Cn1c(=O)cc(C(F)(F)F)c2c(C)nn(C)c21 (stereo unspecified) -8.19%, COc1ccc(NC(=O)CSc2nccn2Cc2ccco2)c(OC)c1 -4.47%, O=C1c2[nH]nc(-c3ccccc3O)c2C(c2ccc(F)cc2)N1CCO (stereo unspecified) 0.84%, COc1ccc(OC)c(NC(=O)Cc2c(C(=O)O)n(C)c3ccc(C)cc23)c1 6.56%, CCOC(=O)c1c(C)sc(-c2c(-c3ccc(OC)c(F)c3)[nH]c3[nH]c(=O)[nH]c(=O)c23)c1O -2.62%, CC1=C(C(=O)Nc2ccc(Cl)cc2)C(c2ccc(C(F)(F)F)cc2)n2nnnc2N1 (stereo unspecified) -0.128%, COc1ccc(-c2nc(SCC(=O)N3CCCCC3C)n[nH]2)cc1 (stereo unspecified) 0%, COC(=O)c1cnn(-c2ccc(C(=O)Nc3cc(OC)c(OC)c(OC)c3)cc2)c1N -1.16%, CCc1ccccc1NC(=O)CSc1ncc(S(=O)(=O)c2ccc(C(C)C)cc2)c(N)n1 0.26%, CCc1ccc(-n2c(=O)c3c(C)c(C(=O)N(C)C)sc3n(Cc3ccccc3C#N)c2=O)cc1 -0.121%, Cc1ccc(CN(Cc2ccco2)C(=O)c2ccc(Cl)cc2)o1 -12.6%, CCc1cccc(C)c1Nc1c(-c2cccc(O)c2)nc2nc(C)cc(C)n12 -20.4%, Cc1ccc(NC(=O)C2CCCN2S(=O)(=O)c2ccc3c(c2)CCCC(=O)N3)cc1Cl (stereo unspecified) 0%, O=C(CSc1ccc2nc(-c3ccccc3)cn2n1)Nc1cccc(F)c1 -0.371%, COc1ccc(NC(=O)c2c(NC(=O)Cc3ccccc3)sc3c2CCCC3)cc1 -7.12%, COc1ccc(NC(=O)Cn2c(=O)n(Cc3ccc(C(=O)NCc4ccccc4Cl)cc3)c(=O)c3ccccc32)cc1 -13%, COc1ccc(Cn2nnc3c(=O)[nH]c(C4CCN(C(=O)c5ccc(C)cc5)CC4)nc32)cc1OC -9.77%, CCN(CC)CCCNC(=O)CN1N=C(c2ccccc2)CCC1=O 16.5%, Cc1cc(F)ccc1NC(=O)Cn1c(=O)ccc2cc(S(=O)(=O)N3CCC(C)CC3)ccc21 0.0361%, Cc1nn(CC(=O)N2CCN(c3cccc(C(F)(F)F)c3)CC2)c(=O)c2cccn12 1.27%, Cc1nn(C)c2c1c(C(F)(F)F)cc(=O)n2C(C)C(=O)NCc1ccccc1Cl (stereo unspecified) -0.713%, Cc1ccc(NC(=O)Cn2nnc(C(=O)NCc3cccs3)c2N)cc1Cl 6.47%, COC(=O)c1sccc1S(=O)(=O)N(CC(=O)NCc1ccc(F)cc1)c1ccc(Cl)cc1 -2.72%, COc1ccc(CNC(=O)c2ccc(CNS(=O)(=O)c3ccc(F)cc3)cc2)cc1 -17.7%, Cc1cc(C)cc(NC(=O)Cn2c(C(F)(F)F)nc3ccccc32)c1 -3.89%, Cc1oc(-c2cccc(Cl)c2)nc1Cn1c(SCc2ccccc2F)nc2ccncc21 -2.43%, Cc1ccccc1NC(=O)CSc1nnc(-c2cccs2)o1 -1.12%, COc1ccc(CCNC(=O)c2ccc3c(c2)N(Cc2ccccc2C)C(=O)c2ccccc2S3)cc1OC -15.6%, COc1ccccc1NC(=O)CSC1=Nc2ccccc2C2=NC(CC(=O)NCc3cccs3)C(=O)N12 (stereo unspecified) -4.43%, N#Cc1ccccc1NC(=O)CSc1nnc(N)s1 -3.4%, COc1ccc(CNC(=O)c2cnc(N3CCOCC3)c3ccccc23)cc1 -4.46%, Fc1ccc(-c2cn3cc(Cc4ccccc4)sc3n2)cc1 -8.24%, CCCN(CCC)C(=O)Cn1c(=O)n(-c2ccc(Cl)cc2)c(=O)c2c3c(sc21)CCCC3 2.6%, CCc1ccc2oc(-c3cc(NC(=O)c4cc([N+](=O)[O-])ccc4N4CCOCC4)ccc3Cl)nc2c1 -7.65%, Cc1ccc(Cl)cc1N1CCN(C(=O)c2cc3c(-c4ccccc4F)nn(C)c3s2)CC1 0.0743%, COc1ccc(-n2ncc(C(=O)N3CCOCC3)c2C2CCN(C(=O)OC(C)(C)C)CC2)cc1 6.03%, Cn1c(=O)c2sccc2n2c(CCCC(=O)NCc3ccccc3)nnc12 -4.6%, Cc1cccc(NC(=O)CCc2c(C)nc3c(c(C)nn3C(C)(C)C)c2C)c1C -4.02%, O=C1COc2ccc(-c3cc(-c4ccccc4)c4c(n3)-c3cc(Cl)ccc3OC4)cc2N1 4.08%, CCN(C(=O)c1cn(CC)c(=O)c2cc(OC)c(OC)cc12)c1ccc(C)c(C)c1 -8.45%, CC1CCc2c(sc3nnn(CC(=O)Nc4ccc(Cl)cc4)c(=O)c23)C1 (stereo unspecified) -1.11%, Cc1ccc(N2CCN(S(=O)(=O)c3ccc4[nH]c5c(c4c3)CCCCC5)CC2)c(C)c1 -3.79%, O=C(Nc1cccc(F)c1F)C1CCN(c2ncccn2)CC1 2.35%, COc1cccc(-n2nnc(-c3nc(-c4ccccc4F)no3)c2C)c1 -3.26%, O=C(Nc1ccc(F)cc1)N1CCN(C(=O)c2nsc3ccccc23)CC1 -0.689%, COC(=O)c1cc2occc2n1CC(=O)Nc1ccc(C(C)C)cc1 -4.13%, CCSc1nn(CC(=O)Nc2ccc(C(=O)OC)cc2)c(N)c1S(=O)(=O)c1ccc(C)cc1 -0.273%, CSc1cccc(NC(=O)Cn2ncn3c(cc4ccccc43)c2=O)c1 -1.56%, COC(=O)c1cc(NC(=O)c2ccc3c(c2)NC(=O)c2ccccc2S3)cc(C(=O)OC)c1 1.45%, COc1ccc(-c2nc3c(c(SCC(=O)N4CCCCC4)n2)Cc2c(CO)cnc(C)c2O3)cc1 -0.448%, Cc1cccc(N2CCN(C(c3ccccc3)c3nnc(-c4ccccc4Cl)o3)CC2)c1C (stereo unspecified) -3.7%
